Results published in ChEMBL document CHEMBL4888484, “Replenishing the malaria drug discovery pipeline: Screening and hit evaluation of the MMV Hit Generation Library 1 (HGL1) against asexual blood stage Plasmodium falciparum ,using a nano luciferase reporter read-out” (2022).
The whole screen tested about 150,000 compounds, of which about 540 (0.36%) showed an effect of 50% or more. The list shows a part of the results.

Each molecule was assayed on Plasmodium falciparum (assay: Primary screen in NF54 nanoGlo assay, in single point, at 2uM, 72h; a lower Z score goes with more inhibition). Details: timepoint 72 hour.
Assay type: functional, Erythrocyte
In the case of Cc1cc(CN2CCN(c3nc4ccccc4nc3C)CC2)on1, the “% Inhibition” value was -9% and the Z score was 1.1.
With O=c1[nH]c2ccccc2c(=O)n1C[C@H]1COc2ccccc2O1 the “% Inhibition” value was 7% and the Z score was -0.92.
For COc1ccc(CC(=O)Nc2cc(C)n(-c3cccc(Cl)c3)n2)cc1, the “% Inhibition” value was 80% and the Z score was -8.55.
For Cc1cc(C(=O)NC(C2CCNCC2)[C@H]2C[C@@H](O)C2)ccc1Cl (stereo partly drawn), the “% Inhibition” value was -14% and the Z score was 2.09.
CCOC(=O)NCCn1cc(-c2ccncc2)cn1 was tested, and the “% Inhibition” value was -10% and the Z score was 1.59.
In the case of CCn1cc(CNc2cccc3c2CCN(c2ccc(C)nn2)C3)nn1, the “% Inhibition” value was -8% and the Z score was 1.43.
For COCC(=O)NC[C@H]1Cn2c(-c3ccccc3)cnc2CO1, the “% Inhibition” value was 34% and the Z score was -3.8.
In the case of COc1ccc(Nc2ccc(-c3nc(-c4ccc(C)cc4)no3)nn2)c(OC)c1, the “% Inhibition” value was -14% and the Z score was 2.03.
For CC(C)Cn1cccc(C(=O)NCC(=O)N2CCCO2)c1=O, the “% Inhibition” value was 5% and the Z score was -0.79.
With CC1(C)O[C@@H]2C[C@@](OCc3cccc(F)c3)(C(=O)NC3CC3)CC(OCc3cccc(Cl)c3)[C@@H]2O1 (stereo partly drawn) the “% Inhibition” value was -9% and the Z score was 1.69.
In the case of Cc1ccn2c(F)c(C(=O)NCCOc3nonc3C)nc2c1, the “% Inhibition” value was -2% and the Z score was 0.3.
With CC[C@H](NC(=O)N1CCC(N2CCOCC2)CC1)c1ccnn1C the “% Inhibition” value was -6% and the Z score was 1.06.
In the case of Cc1c(Cl)ccc2c1NC(=O)[C@]21N2CCC[C@H]2[C@@H](C(=O)c2ccc(Cl)cc2Cl)[C@]12C(=O)Nc1ccccc12, the “% Inhibition” value was 1% and the Z score was -0.07.
COCCNC(N)=NCCC1=CCCCCC1 was tested, and the “% Inhibition” value was -2% and the Z score was 0.31.
For O=C(c1cn2cc(-c3ccc(C(F)(F)F)cc3)ccc2n1)N1CCCC1, the “% Inhibition” value was -11% and the Z score was 1.29.
In the case of CC(C)c1cc(CNC(=O)N2CCC[C@@H]2C(N)=O)no1, the “% Inhibition” value was -11% and the Z score was 1.53.
For Cc1cc(NC(=O)N[C@H](c2ccccc2)C2(CO)CCC2)n(C)n1, the “% Inhibition” value was -3% and the Z score was 0.21.
For COC(=O)c1cncc(NC(=O)N2CCC[C@@H]2c2csc(C)n2)c1, the “% Inhibition” value was 9% and the Z score was -1.26.
For CCCN(Cc1nccn1C)C(=O)NC[C@@H](c1cccc(C)c1)N(C)C, the “% Inhibition” value was -2% and the Z score was 0.29.
With CCCC1C2C(=O)N(c3cccc(C(F)(F)F)c3)C(=O)C2ON1c1ccccc1 (stereo not drawn) the “% Inhibition” value was -14% and the Z score was 1.49.
CC[C@H](NC(=O)c1cn(C)c(=O)[nH]c1=O)c1nccs1 was tested, and the “% Inhibition” value was 3% and the Z score was -0.51.
With N#Cc1ccc(COCC2CCN(CC(=O)NCc3ccc(F)cc3)CC2)cc1 the “% Inhibition” value was -20% and the Z score was 2.26.
With Cc1ccc(CN[C@H]2CCOC2)c2cccnc12 the “% Inhibition” value was -2% and the Z score was 0.4.
In the case of C[C@H](NC(=O)C1CCOCC1)C(=O)Nc1ccc(OC2CCCC2)c(Cl)c1, the “% Inhibition” value was 9% and the Z score was -1.17.
For C[C@@H](C(=O)N1CCC(C)(C#N)CC1)N1CCCCCC1, the “% Inhibition” value was -10% and the Z score was 1.02.
With COCCN1C[C@@H](Cc2ccc(O)c(Cl)c2)CC1=O the “% Inhibition” value was -23% and the Z score was 2.32.
In the case of O=C(CN1C(=O)COc2ccccc21)OCc1coc(-c2ccccc2Cl)n1, the “% Inhibition” value was -7% and the Z score was 0.77.
In the case of CC(C)N1C[C@H](Oc2ccccc2)[C@@H]1C1CCN(C(=O)COCc2ccccc2)CC1, the “% Inhibition” value was -2% and the Z score was 0.2.
For COCc1ccc(C(=O)N[C@H]2CCCOC2)s1, the “% Inhibition” value was 3% and the Z score was -0.47.
In the case of CCc1cc(NC(=O)NCC(F)(F)F)[nH]n1, the “% Inhibition” value was -9% and the Z score was 1.32.
O=C(Cn1cncc(-c2ccccc2)c1=O)NCc1ccccc1 was tested, and the “% Inhibition” value was -2% and the Z score was 0.16.
For C1CCC(NC(=Nc2nonc2N=C(NC2CCCCC2)NC2CCCCC2)NC2CCCCC2)CC1, the “% Inhibition” value was 25% and the Z score was -2.88.
C=CCN1CCC(NC(=O)N(Cc2ccccc2F)C2CCC2)CC1 was tested, and the “% Inhibition” value was -2% and the Z score was 0.22.
With N#Cc1cccc(C(=O)N2CCNC(=O)[C@@H]2c2c(F)cccc2Cl)c1 the “% Inhibition” value was -8% and the Z score was 0.79.
For COCCN1CC2(CCN(C(=O)c3ccoc3)CC2)[C@H]1c1ccncc1, the “% Inhibition” value was -14% and the Z score was 2.33.
With CCCCn1c(N)c(N(C(=O)COc2ccc(C)cc2Br)C2CCCC2)c(=O)[nH]c1=O the “% Inhibition” value was -11% and the Z score was 1.23.
With O=C(Cc1ccc(Cl)cc1)Nc1cnc(-n2ccnc2)nc1 the “% Inhibition” value was 4% and the Z score was -0.61.
For Cc1nnc(-c2ccccc2-c2ccnc3c2ccn3C)o1, the “% Inhibition” value was -18% and the Z score was 2.82.
In the case of COC(=O)[C@@H]1CCCN1C(=O)OC(C)(C)C, the “% Inhibition” value was -6% and the Z score was 0.94.
In the case of CCNC(=O)CNc1ncc(C)c(C)n1, the “% Inhibition” value was 29% and the Z score was -3.87.
In the case of Cc1cc(OCC(=O)NCc2ccccc2F)nnc1C, the “% Inhibition” value was 0% and the Z score was 0.01.
With CCc1c(C)nc(C)nc1N1CC[C@H](NC(=O)c2cc(C)on2)[C@@H](O)C1 the “% Inhibition” value was 8% and the Z score was -1.41.
CCOc1cc(CNC(=O)[C@@H]2Cc3ccccc3N2C(=O)CC)cc(OCC)c1OCC was tested, and the “% Inhibition” value was -4% and the Z score was 0.54.
For O=C(Nc1nnc2ccccn12)c1ccc2ccccc2n1, the “% Inhibition” value was -15% and the Z score was 1.47.
In the case of CC(C)[C@@H]1CN(C(=O)c2c[nH]c(=O)c3ccccc23)CCCO1, the “% Inhibition” value was -5% and the Z score was 0.52.
With CN(Cc1cnc(N2CCCC2)s1)C[C@H]1Cc2ccccc2O1 the “% Inhibition” value was -4% and the Z score was 0.84.
With Cc1cccc(CNCCCc2ccccc2F)n1 the “% Inhibition” value was -7% and the Z score was 1.2.
In the case of O=C(Nc1cccnc1)c1cccc(S(=O)(=O)NC[C@@H]2C[C@H](F)CN2)c1, the “% Inhibition” value was -8% and the Z score was 1.08.
With Cn1c(=O)n(C)c2cc(N3CCCC3)c(NC(=O)NCc3ccco3)cc21 the “% Inhibition” value was -11% and the Z score was 2.18.
In the case of Cc1ccc(S(=O)(=O)Nc2cc(C(=O)O)ccc2N2CCC[C@H](CN3CCCC3)C2)c(C)c1, the “% Inhibition” value was -6% and the Z score was 0.6.
Cc1ccc(N2CCCC2=O)c(C(=O)N[C@H]2CCCc3c(O)cccc32)c1 was tested, and the “% Inhibition” value was 1% and the Z score was -0.12.
In the case of CCc1cc(C(=O)NC[C@](C)(O)CN2CCOCC2)sc1C, the “% Inhibition” value was -3% and the Z score was 0.47.
With Cc1cc(CC(=O)N2CCC(c3c(C)[nH]c4ccccc34)CC2)no1 the “% Inhibition” value was -1% and the Z score was 0.14.
In the case of O=C1OCC2(CCN(C(=O)NCCc3nc(-c4cccnc4)n[nH]3)CC2)O1, the “% Inhibition” value was -4% and the Z score was 0.63.
With C[C@H](NC(=O)C1(C(F)(F)F)CCCC1)c1nccc(N)n1 the “% Inhibition” value was -3% and the Z score was 0.6.
COC(=O)c1cccn1C1CCN(C(=O)c2cc(C#N)cn2C)CC1 was tested, and the “% Inhibition” value was -7% and the Z score was 1.01.
For O=C(C[C@H]1COCCN1C(=O)c1n[nH]c2c1CCC2)c1ccco1, the “% Inhibition” value was -10% and the Z score was 0.86.
With CCCCN(CC(=O)N(Cc1ccco1)C[C@H]1CCCO1)C(=O)CC(C)(C)C the “% Inhibition” value was 0% and the Z score was -0.02.
With O=C(Nc1ccc(NC(=O)c2ccco2)cc1)c1cn(C[C@H](O)c2ccccc2F)nn1 the “% Inhibition” value was -15% and the Z score was 2.73.
For CC(=O)OCCc1c(C)nc2c(C#N)cnn2c1N1CCCC1, the “% Inhibition” value was 0% and the Z score was -0.04.
With O=C1CCCC[C@@H](C(=O)N(CCC(F)(F)F)CC2CC2)N1 the “% Inhibition” value was -30% and the Z score was 3.57.
With C[C@@H](C1CC1)N(C)C(=O)Cn1cc(Br)c(=O)[nH]c1=O the “% Inhibition” value was -3% and the Z score was 0.39.
In the case of c1nc(NCCc2ccc3c(c2)OCO3)c2ccsc2n1, the “% Inhibition” value was -14% and the Z score was 1.14.
Cc1cc(C)nc(N2CCN(C(=O)CC[C@H]3CCCN(C)C3)CC2)n1 was tested, and the “% Inhibition” value was -8% and the Z score was 1.33.
In the case of COc1cccc(NC(=O)c2nc(N)nc(N(C)C)n2)c1, the “% Inhibition” value was -20% and the Z score was 1.86.
In the case of CC(Nc1ncccc1C#N)C(C)n1cccn1 (stereo not drawn), the “% Inhibition” value was -17% and the Z score was 2.17.
For CC(C)n1cnc(C(=O)NC[C@H]2CCC[C@@H]2O)c1, the “% Inhibition” value was -9% and the Z score was 1.13.
In the case of CC1(C)CC(=O)C2(Cc3ccccc3N3CCC(c4ccccc4)CC32)C(=O)C1 (stereo not drawn), the “% Inhibition” value was -17% and the Z score was 2.46.
With CCc1cnc(NC(=O)CC(O)CC(=O)Nc2ncc(CC)s2)s1 the “% Inhibition” value was 1% and the Z score was -0.13.
In the case of CCC(C(=O)Nc1nccs1)N1C[C@H]2C[C@H](O)[C@H](O)C[C@H]2C1 (stereo partly drawn), the “% Inhibition” value was -11% and the Z score was 1.46.
With COc1ccc(CN(C)[C@@H]2CCCC[C@@H]2O)c(F)c1 the “% Inhibition” value was 0% and the Z score was -0.04.
In the case of CCN(CC)S(=O)(=O)c1ccc(N2CCOCC2)c(NCC(=O)Nc2ccc3c(c2)CCC3)c1, the “% Inhibition” value was -42% and the Z score was 4.87.
With NC(=O)c1nccnc1C(=O)N[C@H]1CCCc2ccccc21 the “% Inhibition” value was -8% and the Z score was 1.21.
With Cc1cc(NC(=O)c2ccoc2)cc2sc(N)nc12 the “% Inhibition” value was -2% and the Z score was 0.38.
O=S(=O)(CCn1ccnc1-c1cccs1)c1ccccc1 was tested, and the “% Inhibition” value was -16% and the Z score was 1.39.
With O=C(Nc1ccc(O)cc1)[C@H]1C[C@@H]1C(F)F the “% Inhibition” value was -3% and the Z score was 0.41.
CC(C)C1CN(C(=O)c2c[nH]nc2C2CCOC2)c2ccccc21 (stereo not drawn) was tested, and the “% Inhibition” value was -7% and the Z score was 0.84.
C[C@H](NS(C)(=O)=O)C(=O)NC(C)(C)Cc1ccccc1Cl was tested, and the “% Inhibition” value was 41% and the Z score was -5.88.
With CCOC(=O)[C@H]1CCCN(c2ccc3nnc(CCc4nc(-c5ccccc5C)no4)n3n2)C1 the “% Inhibition” value was -2% and the Z score was 0.35.
With Cc1nc(CCCc2ccc(F)cc2)n(CC(C)(C)O)n1 the “% Inhibition” value was -9% and the Z score was 1.21.
In the case of CN(C(=O)c1cc(F)ccc1Cl)[C@H]1CCc2nn(C)c(=O)n2CC1, the “% Inhibition” value was -9% and the Z score was 1.38.
Cc1cccc(N(CC(=O)N2CCCCC2)C(=O)[C@H]2CCOC2)c1 was tested, and the “% Inhibition” value was -15% and the Z score was 1.3.
In the case of O=C(c1nn[nH]c1-c1ccccc1)N1CCCOCC1, the “% Inhibition” value was 10% and the Z score was -1.42.
COc1ccc(OCc2nccn2C(F)F)cc1OC was tested, and the “% Inhibition” value was -9% and the Z score was 0.89.
